Data on six molecules can be found in the supplement of paper PMC4604168 (melanoma cell lines).

SMILES strings stand for the structures. The list shows a part of the results. Most values come without repeats; read them as rough.
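Further: cell number obtained by counting DAPI-stained nuclei in high-throughput microscope images with image analysis software, screen run in 1,536-well plates.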

This experiment relates to LOXIMVI. The experiment in a line: cell count relative to DMSO control; melanoma cells; higher = more viable cells. To be noted: library dose: low library concentration; 72 h.
The molecule `N#CC[C@H](C1CCCC1)n1cc(-c2ncnc3[nH]ccc23)cn1` [ruxolitinib] + O=C(Nc1cccc(Cl)c1)Nc1ncc(CCNc2ncnc3ccsc23)s1 [SNS314] (first compound 1 µM, partner dose 0.0008 µM) gave a cell count of 86.3%. Turning to `N#CC[C@H](C1CCCC1)n1cc(-c2ncnc3[nH]ccc23)cn1` [ruxolitinib] + NC(=O)Nc1cc(-c2cccc(F)c2)sc1C(=O)N[C@H]1CCCNC1 [AZD7762] (first compound 1 µM, partner dose 0.02 µM), the cell count was 84.4%.

As for `N#CC[C@H](C1CCCC1)n1cc(-c2ncnc3[nH]ccc23)cn1` [ruxolitinib] + CC(C)CCN1c2nc(Nc3cc(F)c(O)c(F)c3)ncc2N(C)C(=O)C1C [BID1870] (first compound 1 µM, partner dose 0.2 µM), the cell count was 92.1%.

`N#CC[C@H](C1CCCC1)n1cc(-c2ncnc3[nH]ccc23)cn1` [ruxolitinib] + c1cc(-c2cnn3cc(-c4ccc(OCCN5CCCCC5)cc4)cnc23)ccn1 [Dorsomorphin] (first compound 1 µM, partner dose 0.4 µM) came in with a cell count of 121%. To `Cc1cc(Nc2cc(N3CCN(C)CC3)nc(Sc3ccc(NC(=O)C4CC4)cc3)n2)n[nH]1` [Tozasertib] + Oc1cc(-c2nc(-c3ccccc3)[nH]c2-c2ccncc2)ccc1Cl [L779450] (first compound 0.006 µM, partner dose 0.2 µM) belongs 81.9%; to `N#CC[C@H](C1CCCC1)n1cc(-c2ncnc3[nH]ccc23)cn1` [ruxolitinib] + CC1(C)NC(=O)N(c2ccc([N+](=O)[O-])c(C(F)(F)F)c2)C1=O [nilutamide] (first compound 1 µM, partner dose 1 µM), 47.9%.
